Laboratory results published in PubChem BioAssay AID1346428 (National Center for Advancing Translational Sciences (NCATS), 2018).
Several values for one entry are separate records, joined by “and”; a condition that tells them apart may be missing. Equal entries are not always repeated. Screen size: about 48,000 compounds; about 1,200 (2.5%) were called active. Another 2% or so got no clear call; they are omitted.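 Rule for the calls: active = activation of at least 60% and not above a set upper limit (about 1 call in 100 departs from these limits); inconclusive = activation of 40% to 60%, or above that upper limit; inactive = activation under 40%.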 The list shows a part of the results.

molecular target: Probable G-protein coupled receptor 32 (Homo sapiens) (UniProt O75388); assay: qHTS for Agonists of Human Resolvin D1 Receptor DRV1; conditions: CHO-K1 GPR32 beta-arrestin PathHunter luminescence, 90 min; at 76.9 µM; stronger effect = higher value; zero percent set by DMSO-only wells; note: 0% is about no effect
Chain of UniProt O75388 (O75388 whole entry, looked up): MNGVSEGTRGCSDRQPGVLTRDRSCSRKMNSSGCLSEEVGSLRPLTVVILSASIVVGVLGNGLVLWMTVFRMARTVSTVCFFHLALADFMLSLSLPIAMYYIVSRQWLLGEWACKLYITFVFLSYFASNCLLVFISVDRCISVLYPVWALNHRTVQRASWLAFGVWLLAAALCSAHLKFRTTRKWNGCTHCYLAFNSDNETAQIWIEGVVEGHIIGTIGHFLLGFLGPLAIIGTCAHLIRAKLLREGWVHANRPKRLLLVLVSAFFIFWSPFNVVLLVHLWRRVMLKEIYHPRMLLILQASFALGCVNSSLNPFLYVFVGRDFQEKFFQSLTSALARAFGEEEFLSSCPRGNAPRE
Method in brief: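 Readings come from a cell-based beta-arrestin complementation format: CHO-K1 GPR32 stable cells (2,500/well) treated 90 min with compounds, then beta-Gal substrate added for 1 h before chemiluminescence imaging.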

With CC1=C(C(=O)Nc2ccc(Cl)cc2)C(C(C)C)n2nc(SCc3ccc(Cl)cc3)nc2N1 (stereo not given) as the molecule, how does the activation read?
Its activation is inactive: -3.27%.

Which activation does the source give for Cc1ccc(C)c(N2CCN(C(=O)CCn3c(=O)c4cccn4c4cccnc43)CC2)c1 here?
Its activation is inactive: -14.2%.

COc1ccccc1Nc1nc(-c2ccccc2Cl)c2cc(Br)ccc2n1 was tested. Which activation did it give?
Its activation is inactive: -25.9%.

How did the activation turn out when CCN(Cc1ccccc1)C(=O)CN1C(=O)COc2ccc(S(=O)(=O)N(CC)CC)cc21 was run?
Its activation is inactive: -17.7%.

Which activation does the source give for O=C(NCC1CCN(Cc2cccc(Cl)c2)CC1)c1cc2ccc3cccnc3c2[nH]1 here?
Its activation is inactive: -2.1%.

How did the activation turn out when O=C(Cn1nc(C(F)(F)F)c2c1CCC2)Nc1ccc(Cl)cc1 was run?
The activation was inactive: 39.4%.

Which activation does the source give for COc1ccc(OC)c(CCNC(=O)C2=C(C)C(=O)OC23CCC(C)CC3)c1 (stereo not given) here?
Its activation is inactive: -27.3%.

For Cc1cc(C)c2c(CC(=O)Nc3ccc(S(=O)(=O)Nc4ncccn4)cc3)coc2c1, which activation is on record?
The activation was inactive: 14.9%.

With O=C(Nc1cnc(N2CCC(N3CCCCC3)CC2)c(C(=O)O)c1)c1ccc(Br)cc1 as the molecule, how does the activation read?
The activation was inactive: 14.5%.

How did the activation turn out when CCn1nc(C)c(CCN(C)C(=O)Nc2cc(C)cc(C)c2)c1C was run?
The activation was inactive: 6.37%.

For CCc1ccc(CNC(=O)Cn2c(-c3cccs3)cc3cc(F)ccc32)cc1, which activation is on record?
The activation was inactive: -2.7%.

How did the activation turn out when COc1ccccc1NC(=O)c1c(NC(=O)Cc2ccccc2)sc2c1CCC(C(C)(C)C)C2 (stereo not given) was run?
Its activation is inactive: -4.17%.

How did the activation turn out when COc1ccc(-n2c(=O)c3c(c4cc(OC)ccc4n3C)n(Cc3ccc(F)cc3Cl)c2=O)cc1 was run?
Its activation is inactive: 7.05%.

For COc1ccc(-c2cc(C(C)=O)c(C)n2CCC(=O)Nc2ccc(C(F)(F)F)cc2)cc1, which activation is on record?
The activation was inactive: 4.56%.

Cc1cc(C)nc(-n2nc(C)c3c2NC(=O)CC3c2cc(F)ccc2F)n1 (stereo not given) was tested. Which activation did it give?
The activation was inactive: -1.43%.

COc1ccccc1NC(=O)Cn1c(=O)n(Cc2ccccc2)c(=O)c2c3c(sc21)CN(C(C)=O)CC3 was tested. Which activation did it give?
The activation was inactive: -10.1%.

Cn1c(=O)cc(SCC(=O)N2CCN(c3ccccc3F)CC2)c2cc(Cl)ccc21 was tested. Which activation did it give?
The activation was inactive: -4.15%.

CC(C)Sc1ncc(Cl)c(C(=O)Nc2ccc(S(=O)(=O)Nc3ncccn3)cc2)n1 was tested. Which activation did it give?
Its activation is inactive: -6.05%.

With Cc1ccc(NC(=O)c2cc3c([nH]c2=O)CC(C)(C)CC3=O)c(C)c1 as the molecule, how does the activation read?
Its activation is inactive: 5.66%.

How did the activation turn out when COc1ccc(CNC(=O)CSc2n[nH]c(-c3ccc(OC)cc3)n2)cc1 was run?
The activation was inactive: 10%.

For Cc1cc(Cl)ccc1OCC(=O)Nc1c(C(=O)c2ccccc2)oc2ccccc12, which activation is on record?
Its activation is inactive: -11.4%.

For O=C(CSc1ncc(-c2ccccc2)[nH]1)Nc1cccc(C(F)(F)F)c1, which activation is on record?
The activation was inactive: -11.8%.

Which activation does the source give for COc1cc(Cn2c(=O)sc3ccccc32)ccc1OCCC(C)C here?
The activation was inactive: -28.6%.

Which activation does the source give for CC(C)c1ccc2c(c1)-c1ccccc1S(=O)(=O)N2CC(=O)N1CCCCC1 here?
The activation was inactive: -21.7%.

Which activation does the source give for Cc1ccccc1-c1nc(CS(=O)(=O)CC(=O)Nc2cc(Cl)cc(Cl)c2)c(C)o1 here?
The activation was inactive: 17.4%.

For Cc1cccc(OCC(=O)N(Cc2ccccc2)c2ccccn2)c1, which activation is on record?
The activation was inactive: -14.9%.

Which activation does the source give for CS(=O)(=O)N1CCCc2cc(C(=O)Nc3cccc(C(F)(F)F)c3)ccc21 here?
Its activation is inactive: 2.28%.

With COc1ccc(C2C(=O)N(C3CCCCCC3)CC(=O)N2CCC2=CCCCC2)cc1 (stereo not given) as the molecule, how does the activation read?
The activation was inactive: -35.6%.

For COC(=O)c1cnc(N2CCN(c3ccc(F)cc3)CC2)c2ccccc12, which activation is on record?
The activation was inactive: -15.9%.

COc1ccc(CCNC(=O)c2ccc3c(Cl)c4c(nc3c2)CCCC4)c(OC)c1 was tested. Which activation did it give?
The activation was inactive: -7.4%.

How did the activation turn out when CC1CCC(NC(=O)c2ccc(CS(=O)(=O)c3c(Cl)cccc3Cl)o2)CC1 (stereo not given) was run?
The activation was inactive: 43.6%.

CC(=O)c1ccc(N2CCN(c3ncnc4onc(C)c34)CC2)cc1 was tested. Which activation did it give?
The activation was inactive: 3.9%.

COC(=O)c1ccc(CSc2nc3c(c(=O)[nH]2)CCC3)cc1 was tested. Which activation did it give?
Its activation is inactive: 7.96%.

For O=C(NCCN1CCCCC1)c1ccc(Cn2c(SCc3cccc(F)c3)nc3cccnc32)cc1, which activation is on record?
The activation was inactive: -4.95%.

Which activation does the source give for COc1ccc(OCC(=O)Nc2ccccc2C(=O)OCc2cc(=O)n3nc(C)sc3n2)cc1 here?
The activation was inactive: -7.69%.

How did the activation turn out when COc1cc(-c2nc(-c3cccc(Cl)c3)c(-c3ccccc3)[nH]2)cc(OC)c1OC was run?
Its activation is inactive: -26.3%.

Which activation does the source give for Cc1ccc(NC(=O)Cn2c(=O)n(Cc3ccc4c(c3)OCO4)c(=O)c3ccccc32)c(C)c1 here?
The activation was inactive: -27.8%.

CCc1ccccc1NC(=O)Cn1c(=O)n(Cc2ccco2)c(=O)c2sc3ccccc3c21 was tested. Which activation did it give?
Its activation is inactive: -2%.

How did the activation turn out when Cc1ccc2nc(N3CCN(c4cccc(C)c4C)CC3)c3nncn3c2c1 was run?
The activation was inactive: 0.304%.

For Cc1ccc(C)c(N2CCN(S(=O)(=O)c3cnc(N)nc3)CC2)c1, which activation is on record?
The activation was inactive: -19.6%.

CC(C)CCn1c(=O)c2sccc2n2c(CCCC(=O)NC3CCC(C)CC3)nnc12 (stereo not given) was tested. Which activation did it give?
The activation was inactive: -11.3%.

Which activation does the source give for CCOC(=O)c1ccc2c(c1)N(Cc1ccccc1)C(=O)c1ccccc1S2 here?
Its activation is inactive: -37%.

How did the activation turn out when COc1cccc(-c2cc(C(=O)Nc3ccn(Cc4ccc(C)cc4)n3)no2)c1 was run?
Its activation is inactive: 49.5%.

CC(C)c1ccc2oc(-c3ccc(NC(=O)c4cc5ccccc5o4)cc3)nc2c1 was tested. Which activation did it give?
Its activation is inactive: 9.17%.

How did the activation turn out when COc1ccc(CCNC(=O)CCSCc2ccccc2Cl)cc1OC was run?
Its activation is inactive: -13.2%.

With O=C(NCCS(=O)(=O)N1CCN(c2ccc(F)cc2)CC1)C1CC(=O)N(c2ccc(F)cc2)C1 (stereo not given) as the molecule, how does the activation read?
Its activation is inactive: -3.2%.

For CCCCc1ccc(NC(=O)CSc2nc3ccccc3nc2N2CCOCC2)cc1, which activation is on record?
Its activation is inactive: -6.28%.

Which activation does the source give for CCc1cccc(C)c1NC(=O)Cn1ccn(Cc2ccc(Cl)cc2)c(=O)c1=O here?
The activation was inactive: -9.4%.

Which activation does the source give for Cc1cc(CCCOc2c(C)cc(-c3noc(C(F)(F)F)n3)cc2C)on1 here?
The activation was inactive: 20.8%.

With Cc1ccc(-c2[nH]c(-c3ccccc3)nc2SCC(=O)NCC2CCCO2)cc1 (stereo not given) as the molecule, how does the activation read?
Its activation is inactive: -19.6%.

COc1ccc(NC(=O)CN(C)S(=O)(=O)c2cnc[nH]2)cc1Cl was tested. Which activation did it give?
The activation was inactive: 2.88%.

With c1ccc(-c2nnc(CN3CCN(c4ccccc4)CC3)o2)cc1 as the molecule, how does the activation read?
The activation was inactive: -10.9%.

For COc1ccc(-c2noc(COc3ccc(Br)cc3C)n2)cc1OC, which activation is on record?
Its activation is inactive: -8.18%.

Which activation does the source give for Cc1ccc2c(c1C)NC(=O)CC2c1ccc(Cl)cc1Cl (stereo not given) here?
Its activation is inactive: 22.6%.

How did the activation turn out when CCc1ccc(OCC(=O)Nc2ccc(-c3nc4ncccc4o3)cc2)cc1 was run?
The activation was inactive: -3.29%.

O=C(O)c1ccc(NC(=O)c2cn(-c3ccccc3)nc2-c2ccc(Br)cc2)cc1 was tested. Which activation did it give?
Its activation is inactive: -3.03%.

With OCCOCCN1CCN(C(c2ccccc2)c2ccc(Cl)cc2)CC1 (stereo not given) as the molecule, how does the activation read?
The activation was inactive: 8.67%.

O=C(CC1N=C2c3ccccc3N=C(SCc3cccc(F)c3)N2C1=O)NCc1ccc2c(c1)OCO2 (stereo not given) was tested. Which activation did it give?
The activation was inactive: 19%.

For CCC(O)c1cc2c(cc1NC(=O)c1ccccc1F)OCCO2 (stereo not given), which activation is on record?
The activation was inactive: 1.78%.

How did the activation turn out when Cc1ccc(OCC(=O)Nc2cccc(C(=O)OCc3cc(=O)n4nc(C)sc4n3)c2)cc1 was run?
Its activation is inactive: -2.55%.

With COc1cccc(CNC(=O)C(=O)Nc2ccc3nc4n(c(=O)c3c2)CCCCC4)c1 as the molecule, how does the activation read?
Its activation is inactive: 13.5%.

Cc1ccc2nc(Cl)c3cc(C(=O)NC4CCC(C)CC4)sc3c2c1 (stereo not given) was tested. Which activation did it give?
Its activation is inactive: -19.4%.

Which activation does the source give for Cc1ccc(N2CCN(C(=O)c3cc(S(=O)(=O)N4CCCCC4)c[nH]3)CC2)c(C)c1 here?
Its activation is inactive: 16.1%.

Cc1ccc(-c2cc(C(=O)Oc3ccccc3Cl)no2)cc1C was tested. Which activation did it give?
The activation was inactive: 7.41%.

For CCN1CCN(C(=O)Cn2c(-c3cccs3)cc3ccccc32)CC1, which activation is on record?
Its activation is inactive: -13.6%.

Which activation does the source give for O=C(O)CNC(=O)c1ccccc1I here?
The activation was inactive: -6.56%.

Which activation does the source give for COc1nc(-c2ccccc2)ccc1-c1noc(-c2ccccc2Br)n1 here?
The activation was inactive: -22%.

Which activation does the source give for COc1cccc(OCc2cc(=O)n3c(-c4ccccc4)csc3n2)c1 here?
Its activation is active: 121%.

Which activation does the source give for COc1ccc(CCNC(=O)c2ccc3c(c2)N(Cc2ccccc2F)C(=O)c2ccccc2S3=O)cc1OC (stereo not given) here?
The activation was inactive: -10.8%.

CCN(CC)S(=O)(=O)c1ccc(C(=O)NCCSc2c(-c3ccc(C)cc3)[nH]c3ccccc23)cc1 was tested. Which activation did it give?
Its activation is inactive: -15.1%.

COc1ccc(N2CCN(S(=O)(=O)CCNC(=O)COc3ccccc3F)CC2)cc1 was tested. Which activation did it give?
Its activation is inactive: -13.8%.

For O=C(CN1C(=O)COc2ccc(S(=O)(=O)N3CCCC3)cc21)N1CCN(c2cccc(C(F)(F)F)c2)CC1, which activation is on record?
Its activation is inactive: 17.7%.

For CCOc1ccccc1CNC(=O)CCc1c(C)nn(-c2ccc(N3CCOCC3)nn2)c1C, which activation is on record?
The activation was inactive: 0%.

For CN1C(=O)c2ccccc2Sc2ccc(NC(=O)NCc3cccc(Cl)c3)cc21, which activation is on record?
Its activation is inactive: 1.42%.

How did the activation turn out when Cc1ccc(C(=O)Oc2c(S(=O)(=O)c3ccccc3)c(C)nn2-c2ccccc2)cc1 was run?
The activation was inactive: 2.13%.

For CCOC(=O)CSc1nc(-c2ccc(Cl)cc2)cc(C(F)(F)F)c1C#N, which activation is on record?
Its activation is inactive: 49.4%.

With Cc1ccccc1N1C(=O)c2cc(S(N)(=O)=O)c(Cl)cc2NC1C (stereo not given) as the molecule, how does the activation read?
The activation was inactive: -14.9% and inactive: 3.94%.

Cc1ccccc1C(=O)NCCc1csc(-c2ccc(C(F)(F)F)cc2)n1 was tested. Which activation did it give?
Its activation is inactive: 2.98%.

For COc1ccc(-n2c(-c3ccc(C)cc3)cc3c2CC(C)(C)CC3=O)c(OC)c1, which activation is on record?
Its activation is inactive: -23.7%.

With Cc1ccc(Cc2nc3ccccc3nc2SCC(=O)N2CCCc3ccccc32)cc1 as the molecule, how does the activation read?
Its activation is inactive: -17.2%.

Cc1ccc(NC(=O)CCNS(=O)(=O)c2cccc3nonc23)cc1Cl was tested. Which activation did it give?
Its activation is inactive: -26.4%.

With Cc1cn2c(=O)cc(COC(=O)c3cccc(NC(=O)COc4ccccc4C)c3)nc2s1 as the molecule, how does the activation read?
Its activation is inactive: -9.11%.

With Cc1ccc(CNC(=O)CSc2c3c(nc4cc(Cl)ccc24)CCCC3)cc1 as the molecule, how does the activation read?
Its activation is inactive: -7.58%.

With CCCNC(=O)C(C)n1nc(C)c2c(C)n(-c3ccccc3)nc2c1=O (stereo not given) as the molecule, how does the activation read?
Its activation is inactive: -12.6%.

For Cc1c(-c2nc(-c3ccccc3F)no2)nnn1-c1cc(F)ccc1F, which activation is on record?
The activation was inactive: -2.99%.
